Assay results reported in the supplement of paper PMC8728848.
The other results are listed elsewhere or left out.

Legend:
Assay in all cases: glycan array binding signal (z-score within array); higher = stronger binding
Settings in all cases: glycan notation: IUPAC condensed, linker removed
[1] = biological target: Gal(b1-3)[GlcNAc(b1-6)]GalNAc
Summary of the method: (§1)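 Glycan array data were curated from 3228 arrays in the Consortium for Functional Glycomics database and kept only where the protein sequence was available. Glycan names were converted to IUPAC-condensed notation, and columns mapping to the same glycan were averaged. The binding signal is a within-array Z-score, averaged across arrays of the same protein sequence at different concentrations or buffers and across linkers. Negative Z-scores can be read as non-binding.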

[2] = biological target: Gal(b1-3)[Neu5Ac(a2-6)]GalNAc
Summary of the method: as §1

[3] = biological target: Gal(b1-3)[Neu5Ac(a2-6)]GlcNAc(b1-6)Gal(b1-4)Glc
Summary of the method: as §1

[4] = biological target: Gal(b1-3)[Neu5Ac(b2-6)]GalNAc
Summary of the method: as §1

[5] = biological target: Gal(b1-4)GalNAc(a1-3)[Fuc(a1-2)]Gal(b1-4)GlcNAc
Summary of the method: as §1

[6] = biological target: Gal(b1-4)GalNAc(b1-3)[Fuc(a1-2)]Gal(b1-4)GlcNAc
Summary of the method: as §1

[7] = biological target: Gal(b1-4)Glc
Summary of the method: as §1

[8] = biological target: Gal(b1-4)Glc6S
Summary of the method: as §1

[9] = biological target: Gal(b1-4)GlcNAc
Summary of the method: as §1

[10] = biological target: Gal(b1-4)GlcNAc(a1-6)Gal(b1-4)GlcNAc
Summary of the method: as §1

[11] = biological target: Gal(b1-4)GlcNAc(b1-2)Man(a1-3)Man(b1-4)GlcNAc(b1-4)GlcNAc
Summary of the method: as §1

[12] = biological target: Gal(b1-4)GlcNAc(b1-2)Man(a1-3)[Gal(b1-4)GlcNAc(b1-2)Man(a1-6)]Man(b1-4)GlcNAc(b1-4)GlcNAc
Summary of the method: as §1

[13] = biological target: Gal(b1-4)GlcNAc(b1-2)Man(a1-3)[Gal(b1-4)GlcNAc(b1-2)Man(a1-6)]Man(b1-4)GlcNAc(b1-4)[Fuc(a1-6)]GlcNAc
Summary of the method: as §1

[14] = biological target: Gal(b1-4)GlcNAc(b1-2)Man(a1-3)[GlcNAc(b1-2)Man(a1-6)]Man(b1-4)GlcNAc(b1-4)GlcNAc
Summary of the method: as §1

[15] = biological target: Gal(b1-4)GlcNAc(b1-2)Man(a1-3)[Man(a1-6)]Man(b1-4)GlcNAc(b1-4)GlcNAc
Summary of the method: as §1

[16] = biological target: Gal(b1-4)GlcNAc(b1-2)Man(a1-6)Man(b1-4)GlcNAc(b1-4)GlcNAc
Summary of the method: as §1

[17] = biological target: Gal(b1-4)GlcNAc(b1-2)Man(a1-6)[GlcNAc(b1-2)Man(a1-3)]Man(b1-4)GlcNAc(b1-4)GlcNAc
Summary of the method: as §1

[18] = biological target: Gal(b1-4)GlcNAc(b1-2)Man(a1-6)[Man(a1-3)]Man(b1-4)GlcNAc(b1-4)GlcNAc
Summary of the method: as §1

[19] = biological target: Gal(b1-4)GlcNAc(b1-2)[Gal(b1-4)GlcNAc(b1-4)]Man(a1-3)[Gal(b1-4)GlcNAc(b1-2)Man(a1-6)]Man(b1-4)GlcNAc(b1-4)GlcNAc
Summary of the method: as §1

[20] = biological target: Gal(b1-4)GlcNAc(b1-2)[Gal(b1-4)GlcNAc(b1-4)]Man(a1-3)[Gal(b1-4)GlcNAc(b1-2)[Gal(b1-4)GlcNAc(b1-6)]Man(a1-6)]Man(b1-4)GlcNAc(b1-4)GlcNAc
Summary of the method: as §1

[21] = biological target: Gal(b1-4)GlcNAc(b1-3)Gal(b1-3)GlcNAc
Summary of the method: as §1

[22] = biological target: Gal(b1-4)GlcNAc(b1-3)Gal(b1-4)Glc
Summary of the method: as §1

[23] = biological target: Gal(b1-4)GlcNAc(b1-3)Gal(b1-4)GlcNAc
Summary of the method: as §1

[24] = biological target: Gal(b1-4)GlcNAc(b1-3)Gal(b1-4)GlcNAc(b1-3)Gal(b1-4)GlcNAc
Summary of the method: as §1

[25] = biological target: Gal(b1-4)GlcNAc(b1-3)Gal(b1-4)[Fuc(a1-3)]GlcNAc(b1-3)Gal(b1-4)[Fuc(a1-3)]GlcNAc
Summary of the method: as §1

[26] = biological target: Gal(b1-4)GlcNAc(b1-3)GalNAc
Summary of the method: as §1

[27] = biological target: Gal(b1-4)GlcNAc(b1-3)[Gal(b1-4)GlcNAc(b1-6)]Gal(b1-4)GlcNAc
Summary of the method: as §1

[28] = biological target: Gal(b1-4)GlcNAc(b1-3)[Gal(b1-4)GlcNAc(b1-6)]GalNAc
Summary of the method: as §1

[29] = biological target: Gal(b1-4)GlcNAc(b1-3)[GlcNAc(b1-6)]Gal(b1-4)GlcNAc
Summary of the method: as §1

[30] = biological target: Gal(b1-4)GlcNAc(b1-6)Gal(b1-4)GlcNAc
Summary of the method: as §1

[31] = biological target: Gal(b1-4)GlcNAc(b1-6)Gal(b1-4)GlcNAc(b1-6)GalNAc
Summary of the method: as §1

[32] = biological target: Gal(b1-4)GlcNAc(b1-6)GalNAc
Summary of the method: as §1

[33] = biological target: Gal(b1-4)GlcNAc(b1-6)[Gal(b1-3)]GalNAc
Summary of the method: as §1

[34] = biological target: Gal3S(b1-3)GalNAc
Summary of the method: as §1

[35] = biological target: Gal3S(b1-3)GlcNAc
Summary of the method: as §1

[36] = biological target: Gal3S(b1-3)[Fuc(a1-4)]GlcNAc
Summary of the method: as §1

[37] = biological target: Gal3S(b1-4)Glc
Summary of the method: as §1

[38] = biological target: Gal3S(b1-4)Glc6S
Summary of the method: as §1

B1: CLEC-1 (Homo sapiens), Q9NZH3 (protein)
chain: MQAKYSSTRDMLDDDGDTTMSLHSQASATTRHPEPRRTEHRAPSSTWRPVALTLLTLCLVLLIGLAAWGLLFFQYYQLSNTGQDTISQMEERLGNTSQELQSLQVQNIKLAGSLQHVAEKLCRELYNKAGAHRCSPCTEQWKWHGDNCYQFYKDSKSWEDCKYFCLSENSTMLKINKQEDLEFAASQSYSEFFYSYWTGLLRPDSGKAWLWMDGTPFTSELFHIIIDVTSPRSRDCVAILNGMIFSKDCKELKRCVCERRAGMVKPESLHVPPETLGEGD
glycan array binding signal (z-score) [1]: -0.033
glycan array binding signal (z-score) [2]: -0.182
glycan array binding signal (z-score) [3]: -0.173
glycan array binding signal (z-score) [4]: 0.026
glycan array binding signal (z-score) [5]: -0.189
glycan array binding signal (z-score) [6]: 0.051
glycan array binding signal (z-score) [7]: -0.204
glycan array binding signal (z-score) [8]: 0.136
glycan array binding signal (z-score) [9]: -0.169
glycan array binding signal (z-score) [10]: -0.071
glycan array binding signal (z-score) [11]: 1.79
glycan array binding signal (z-score) [12]: 0.112
glycan array binding signal (z-score) [13]: 0.318
glycan array binding signal (z-score) [14]: -0.583
glycan array binding signal (z-score) [15]: 11
glycan array binding signal (z-score) [16]: 1.12
glycan array binding signal (z-score) [17]: -0.462
glycan array binding signal (z-score) [18]: -0.051
glycan array binding signal (z-score) [19]: -0.045
glycan array binding signal (z-score) [20]: -0.142
glycan array binding signal (z-score) [21]: -0.308
glycan array binding signal (z-score) [22]: 0.23
glycan array binding signal (z-score) [23]: -0.26
glycan array binding signal (z-score) [24]: -0.162
glycan array binding signal (z-score) [25]: 0.143
glycan array binding signal (z-score) [26]: -0.261
glycan array binding signal (z-score) [27]: -0.521
glycan array binding signal (z-score) [28]: -0.279
glycan array binding signal (z-score) [29]: 0.05
glycan array binding signal (z-score) [30]: 1.75
glycan array binding signal (z-score) [31]: -0.203
glycan array binding signal (z-score) [32]: 0.105
glycan array binding signal (z-score) [33]: -0.132
glycan array binding signal (z-score) [34]: -0.341
glycan array binding signal (z-score) [35]: -0.358
glycan array binding signal (z-score) [36]: 1.09
glycan array binding signal (z-score) [37]: -0.133
glycan array binding signal (z-score) [38]: 0.212
